Experimental data as given in article PMC4571948, “Identification of a Novel Sequence Motif Recognized by the Ankyrin Repeat Domain of zDHHC17/13 S-Acyltransferases*” (The Journal of Biological Chemistry, 2015).
Changes are numbered by the printed parent chain. Numbers in names are those of the source. These are yes or no findings as the source states them, for the method shown. For part of these data: Binding seen in cells or lysates may run through a third protein. Some results given as binding are weak or reduced against the parent protein; the word gives no strength. For part of these data: Tags and fused reporters may be left off the sequences shown.

Chains of the proteins cited; added tags and fusions are not shown. Lines headed by an entry give the natural chain unless they say otherwise; changes in a name come on top. A line that says so, or that is headed by a name, gives the form on record, which may keep a tag or linker. Residues count along the entry.
UniProt Q80TN5: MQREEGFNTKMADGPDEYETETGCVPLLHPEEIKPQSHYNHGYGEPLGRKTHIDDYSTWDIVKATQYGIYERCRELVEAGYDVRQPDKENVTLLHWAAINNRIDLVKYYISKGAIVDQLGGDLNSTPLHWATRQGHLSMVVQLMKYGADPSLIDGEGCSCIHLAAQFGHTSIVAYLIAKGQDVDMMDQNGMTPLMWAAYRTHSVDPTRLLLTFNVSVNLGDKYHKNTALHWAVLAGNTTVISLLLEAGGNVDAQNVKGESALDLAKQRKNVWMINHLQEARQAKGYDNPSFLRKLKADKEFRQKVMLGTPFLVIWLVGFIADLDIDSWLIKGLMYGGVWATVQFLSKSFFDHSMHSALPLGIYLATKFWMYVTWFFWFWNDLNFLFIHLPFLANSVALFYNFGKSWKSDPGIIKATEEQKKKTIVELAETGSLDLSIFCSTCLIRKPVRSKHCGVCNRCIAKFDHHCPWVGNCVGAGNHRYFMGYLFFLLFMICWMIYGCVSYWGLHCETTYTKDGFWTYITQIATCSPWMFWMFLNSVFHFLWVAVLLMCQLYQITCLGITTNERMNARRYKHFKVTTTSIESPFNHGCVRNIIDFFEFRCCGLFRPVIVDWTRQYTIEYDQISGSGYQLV
His6-ARD17 (residues 54–288): residues 54-288 of Q80TN5
UniProt P60881: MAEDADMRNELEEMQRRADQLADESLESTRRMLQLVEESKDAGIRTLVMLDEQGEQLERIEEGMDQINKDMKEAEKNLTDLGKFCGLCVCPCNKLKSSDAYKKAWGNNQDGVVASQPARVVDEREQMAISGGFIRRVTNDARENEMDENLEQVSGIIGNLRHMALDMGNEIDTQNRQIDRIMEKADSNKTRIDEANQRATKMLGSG
NubG-2HA-tagged SNAP25b 1–120: residues 1-120 of P60881
NubG-2HA-tagged SNAP25b 1–115: residues 1-115 of P60881
NubG-2HA-tagged SNAP25b 83–206: residues 83-206 of P60881
NubG-2HA-tagged SNAP25b 93–206: residues 93-206 of P60881
NubG-2HA-tagged SNAP25b 116–206: residues 116-206 of P60881
NubG-2HA-tagged SNAP25b Pro^117 to isoleucine (P60881-1, form named): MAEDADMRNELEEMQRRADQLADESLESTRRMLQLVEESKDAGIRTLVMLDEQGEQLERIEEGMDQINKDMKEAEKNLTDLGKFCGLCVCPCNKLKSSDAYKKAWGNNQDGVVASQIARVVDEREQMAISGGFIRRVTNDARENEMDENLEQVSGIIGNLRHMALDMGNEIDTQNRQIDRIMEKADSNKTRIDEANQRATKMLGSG
NubG-2HA-tagged SNAP25b Pro^117 to valine (P60881-1, form named): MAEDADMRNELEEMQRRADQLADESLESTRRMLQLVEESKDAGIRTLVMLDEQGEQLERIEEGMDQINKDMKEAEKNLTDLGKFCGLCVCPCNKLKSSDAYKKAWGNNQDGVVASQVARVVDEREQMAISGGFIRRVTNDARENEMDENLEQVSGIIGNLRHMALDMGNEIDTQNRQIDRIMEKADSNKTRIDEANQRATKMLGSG
UniProt Q96JE9, residues 1-439: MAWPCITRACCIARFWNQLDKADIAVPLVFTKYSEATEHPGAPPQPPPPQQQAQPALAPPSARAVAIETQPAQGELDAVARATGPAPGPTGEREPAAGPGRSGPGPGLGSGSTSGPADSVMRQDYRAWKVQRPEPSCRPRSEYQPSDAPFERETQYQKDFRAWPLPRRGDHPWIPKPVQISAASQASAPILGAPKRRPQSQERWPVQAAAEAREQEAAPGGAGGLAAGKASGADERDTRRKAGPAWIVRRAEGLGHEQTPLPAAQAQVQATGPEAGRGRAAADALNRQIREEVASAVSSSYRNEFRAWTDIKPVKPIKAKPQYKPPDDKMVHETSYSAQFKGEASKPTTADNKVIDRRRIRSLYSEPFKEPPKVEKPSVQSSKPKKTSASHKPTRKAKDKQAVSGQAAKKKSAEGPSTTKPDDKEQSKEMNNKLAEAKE
HTT(1–550) tested in the His6-ARD17 pulldown (P42858, residues 1-550): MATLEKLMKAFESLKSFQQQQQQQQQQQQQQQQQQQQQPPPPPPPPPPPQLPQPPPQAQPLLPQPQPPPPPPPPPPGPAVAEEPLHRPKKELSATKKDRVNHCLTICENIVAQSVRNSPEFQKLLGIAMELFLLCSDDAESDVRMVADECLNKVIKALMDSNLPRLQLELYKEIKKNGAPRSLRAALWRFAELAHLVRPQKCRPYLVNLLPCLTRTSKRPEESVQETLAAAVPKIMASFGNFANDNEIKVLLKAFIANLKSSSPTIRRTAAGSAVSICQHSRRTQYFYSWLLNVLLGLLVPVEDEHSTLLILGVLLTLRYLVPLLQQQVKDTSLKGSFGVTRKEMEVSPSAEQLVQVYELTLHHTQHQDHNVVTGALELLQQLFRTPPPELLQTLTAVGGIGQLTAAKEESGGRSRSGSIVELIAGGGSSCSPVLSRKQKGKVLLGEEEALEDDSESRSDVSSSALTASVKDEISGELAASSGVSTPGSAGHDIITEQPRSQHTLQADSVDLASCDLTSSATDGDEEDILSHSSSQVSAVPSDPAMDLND
NubG-2HA-tagged HTT(1–550) R500A (P42858, form named): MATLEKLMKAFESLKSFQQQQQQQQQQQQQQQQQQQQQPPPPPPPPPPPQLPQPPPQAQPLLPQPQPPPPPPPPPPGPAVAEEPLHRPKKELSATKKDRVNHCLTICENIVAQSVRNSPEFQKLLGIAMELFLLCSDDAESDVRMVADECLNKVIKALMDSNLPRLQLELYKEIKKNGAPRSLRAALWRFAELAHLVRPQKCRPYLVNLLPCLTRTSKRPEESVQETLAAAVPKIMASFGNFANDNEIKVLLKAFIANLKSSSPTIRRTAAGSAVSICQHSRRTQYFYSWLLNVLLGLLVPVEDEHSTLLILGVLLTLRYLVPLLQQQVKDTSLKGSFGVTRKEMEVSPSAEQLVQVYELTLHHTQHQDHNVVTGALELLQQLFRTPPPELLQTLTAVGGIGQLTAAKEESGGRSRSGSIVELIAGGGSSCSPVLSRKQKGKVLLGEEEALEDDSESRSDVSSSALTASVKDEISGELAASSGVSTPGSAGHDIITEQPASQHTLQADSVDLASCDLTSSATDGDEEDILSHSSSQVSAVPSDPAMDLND

How the values were obtained:
[1] = biological target: zDHHC17-Cub-PLV (full-length murine zDHHC17 bait) (murine) (UniProt Q80TN5); experiment: two-hybrid; mating-based split ubiquitin system (SUS) in yeast: zDHHC-Cub-PLV baits, NubG-2HA-tagged preys; growth on synthetic defined medium (PLV-dependent activation of auxotrophy genes)
[2] = biological target: T1, zDHHC13-Cub-PLV (full-length murine zDHHC13 bait) (murine) (UniProt Q9CWU2); experiment: as above
T1 sequence: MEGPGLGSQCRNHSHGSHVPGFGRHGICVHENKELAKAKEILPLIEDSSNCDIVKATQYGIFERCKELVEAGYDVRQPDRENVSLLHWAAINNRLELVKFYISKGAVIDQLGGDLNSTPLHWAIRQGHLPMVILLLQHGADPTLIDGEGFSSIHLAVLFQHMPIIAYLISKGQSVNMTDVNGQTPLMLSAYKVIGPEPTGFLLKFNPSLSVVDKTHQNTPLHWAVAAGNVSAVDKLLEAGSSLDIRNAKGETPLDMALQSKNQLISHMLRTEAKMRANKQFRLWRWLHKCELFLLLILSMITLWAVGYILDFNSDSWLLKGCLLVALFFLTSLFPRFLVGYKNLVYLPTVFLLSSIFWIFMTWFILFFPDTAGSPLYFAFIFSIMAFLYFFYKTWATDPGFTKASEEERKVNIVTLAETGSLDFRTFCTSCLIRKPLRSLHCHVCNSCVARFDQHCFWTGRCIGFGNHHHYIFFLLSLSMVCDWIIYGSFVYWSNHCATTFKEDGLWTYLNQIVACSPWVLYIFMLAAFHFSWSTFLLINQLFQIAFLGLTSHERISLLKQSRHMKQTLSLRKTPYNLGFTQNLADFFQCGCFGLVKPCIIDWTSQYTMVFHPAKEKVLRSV

[3] = biological target: T2, zDHHC3-Cub-PLV (murine zDHHC3 bait) (murine) (UniProt Q8R173); experiment: as above
T2 sequence: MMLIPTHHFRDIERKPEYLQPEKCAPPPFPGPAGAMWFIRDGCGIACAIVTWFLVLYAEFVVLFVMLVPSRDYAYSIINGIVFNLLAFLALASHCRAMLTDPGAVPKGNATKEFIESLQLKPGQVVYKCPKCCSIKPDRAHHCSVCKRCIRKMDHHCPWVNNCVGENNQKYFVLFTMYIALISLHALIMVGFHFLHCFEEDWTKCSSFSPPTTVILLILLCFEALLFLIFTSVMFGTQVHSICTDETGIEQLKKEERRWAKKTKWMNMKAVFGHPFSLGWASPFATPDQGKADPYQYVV

[4] = biological target: His6-ARD17 (residues 54–288) (murine) (UniProt Q80TN5); experiment: pull-down; 75 μg His6-ARD17 on Ni2+-NTA-agarose with HEK293T lysates of EGFP-tagged proteins, 2 h at 4 °C; 20 mM Tris-HCl pH 8, 150 mM NaCl, 1% Triton X-100, 20 mM imidazole; washes 300 mM NaCl, 60 mM imidazole; GFP blot; only the target purified
[5] = biological target: GST-SNAP25bFL (full-length GST-tagged SNAP25b) (rat) (UniProt P60881); experiment: pull-down; Fig. 5A: 125 μg GST fusion protein on glutathione-Sepharose with HEK293T lysates of HA-tagged proteins (Tris buffer, 1% Triton X-100), overnight at 4 °C, washes with Tris buffer with 0.5% Triton X-100; HA blot; only the target purified
[6] = biological target: T3, GST-SNAP25b(111–120) (rat); experiment: as above
T3 sequence: GVVASQPARV

[7] = biological target: T3, GST-SNAP25b(111–120) (rat); experiment: pull-down; Fig. 5B: 125 μg GST fusion protein on glutathione-Sepharose with HEK293T lysates of HA- or FLAG-tagged proteins (Tris buffer, 0.5% Triton X-100), overnight at 4 °C, washes with Tris buffer; HA or FLAG blot; only the target purified

With “NubG-2HA-tagged SNAP25b 1–115 (from UniProt P60881-1 1-115) (domain or fragment)” the binding [1] was “no binding” and the binding [2] was “no binding”.

“NubG-2HA-tagged SNAP25b V112A (from UniProt P60881-1 1-206)” was tested, and the binding [1] was “binds”, the binding [3] was “binds weakly” and the binding [2] was “binds”.

“NubG-2HA-tagged SNAP25b V113A (from UniProt P60881-1 1-206)” was tested, and the binding [3] was “binds weakly”.

In the case of “NubG-2HA-tagged SNAP25b Q116A (from UniProt P60881-1 1-206)”, the binding [3] is reported as “binds weakly”.

For “EGFP-tagged E-STOP (wild type) (from UniProt Q96JE9-1 1-439) (domain or fragment)”, the binding [4] was “binds”.

In the case of “NubG-2HA-tagged SNAP25b (wild type) (from UniProt P60881-1 1-206)”, the binding [1] is reported as “binds”, the binding [3] is reported as “binds weakly” and the binding [2] is reported as “binds”.

With “NubG-2HA-tagged HTT(1–550) R500A (from UniProt P42858 1-550) (domain or fragment)” the binding [1] was “binds” and the binding [2] was “binds”.

In the case of “NubG-2HA-tagged SNAP25b P117A (from UniProt P60881-1 1-206)”, the binding [3] is reported as “binds weakly”.

With “NubG-2HA-tagged HTT(1–550) (wild type) (from UniProt P42858 1-550) (domain or fragment)” the binding [1] was “binds” and the binding [2] was “binds”.

In the case of “HA-zD17(301X) (HA-tagged AR-containing fragment of zDHHC17) (from UniProt Q80TN5 1-300) (domain or fragment)”, the binding [5] is reported as “binds”, the binding [6] is reported as “binds” and the binding [7] is reported as “binds”.

“NubG-2HA-tagged SNAP25b 83–206 (from UniProt P60881-1 83-206) (domain or fragment)” was tested, and the binding [1] was “binds” and the binding [2] was “binds”.

“NubG-2HA-tagged SNAP25b 93–206 (from UniProt P60881-1 93-206) (domain or fragment)” was tested, and the binding [1] was “binds” and the binding [2] was “binds”.

For “NubG-2HA-tagged SNAP25b Pro^117 to isoleucine (from UniProt P60881-1 1-206)”, the binding [1] was “binds” and the binding [2] was “binds”.

With “NubG-2HA-tagged SNAP25b 1–120 (from UniProt P60881-1 1-120) (domain or fragment)” the binding [1] was “binds” and the binding [2] was “binds”.

With “NubG-2HA-tagged SNAP25b Pro^117 to valine (from UniProt P60881-1 1-206)” the binding [1] was “binds” and the binding [2] was “binds”.

For “NubG-2HA-tagged SNAP25b 116–206 (from UniProt P60881-1 116-206) (domain or fragment)”, the binding [1] was “no binding” and the binding [2] was “no binding”.

For “HTT(1–550) tested in the His6-ARD17 pulldown (from UniProt P42858 1-550) (domain or fragment)”, the binding [4] was “no binding”.

In the case of “EGFP-tagged SNAP25b (wild type) (from UniProt P60881-1 1-206)”, the binding [4] is reported as “binds”.

B1: NubG-2HA-tagged CSPα (wild type) (protein, UniProt Q29455 1-198)
chain: MADQRQRSLSTSGESLYHVLGLDKNATSDDIKKSYRKLALKYHPDKNPDNPEAADKFKEINNAHAILTDATKRNIYDKYGSLGLYVAEQFGEENVNTYFVLSSWWAKALFIFCGLLTCCYCCCCLCCCFNCCCGKCKPKAPEGEETEFYVSPEDLEAQLQSDEREAADTPIVIQPASATETTQLTADSHPSYHTDGFN
For B1, the binding [1] was “binds”, the binding [3] was “binds weakly” and the binding [2] was “binds”.

B2: EGFP-tagged SNAP23 (wild type) (protein, UniProt O09044 1-210)
chain: MDNLSPEEVQLRAHQVTDESLESTRRILGLAIESQDAGIKTITMLDEQGEQLNRIEEGMDQINKDMREAEKTLTELNKCCGLCICPCNRTKNFESGKNYKATWGDGGDNSPSNVVSKQPSRITNGQPQQTTGAASGGYIKRITNDAREDEMEENLTQVGSILGNLKNMALDMGNEIDAQNQQIQKITEKADTNKNRIDIANTRAKKLIDS
In the case of B2, the binding [4] is reported as “binds”.

B3: EGFP-tagged CSPα (wild type) (protein, UniProt Q29455 1-198)
chain: B1 chain
With B3 the binding [4] was “binds”.

B4: EGFP-tagged CLIP3 (wild type) (protein, UniProt Q96DZ5 1-547)
chain: MTKTDPAPMAPPPRGEEEEEEEEDEPVPEAPSPTQERRQKPVVHPSAPAPLPKDYAFTFFDPNDPACQEILFDPQTTIPELFAIVRQWVPQVQHKIDVIGNEILRRGCHVNDRDGLTDMTLLHYACKAGAHGVGDPAAAVRLSQQLLALGADVTLRSRWTNMNALHYAAYFDVPDLVRVLLKGARPRVVNSTCSDFNHGSALHIAASSLCLGAAKCLLEHGANPALRNRKGQVPAEVVPDPMDMSLDKAEAALVAKELRTLLEEAVPLSCALPKVTLPNYDNVPGNLMLSALGLRLGDRVLLDGQKTGTLRFCGTTEFASGQWVGVELDEPEGKNDGSVGGVRYFICPPKQGLFASVSKISKAVDAPPSSVTSTPRTPRMDFSRVTGKGRREHKGKKKTPSSPSLGSLQQRDGAKAEVGDQVLVAGQKQGIVRFYGKTDFAPGYWYGIELDQPTGKHDGSVFGVRYFTCPPRHGVFAPASRIQRIGGSTDSPGDSVGAKKVHQVTMTQPKRTFTTVRTPKDIASENSISRLLFCCWFPWMLRAEMQS
With B4 the binding [4] was “binds”.

B5: NubG-2HA-tagged CSPα K137A (protein, UniProt Q29455 1-198)
chain: B1 chain with K137A
B5 was tested, and the binding [1] was “binds” and the binding [2] was “binds”.

B6: NubG-2HA-tagged SNAP23 (wild type) (protein, UniProt O09044 1-210)
chain: B2 chain
For B6, the binding [1] was “binds” and the binding [2] was “binds”.

B7: NubG-2HA-tagged CLIP3 (wild type) (protein, UniProt Q96DZ5 1-547)
chain: B4 chain
With B7 the binding [1] was “binds” and the binding [2] was “binds”.
